Measured values: PubChem BioAssay AID588579 (National Center for Advancing Translational Sciences (NCATS), 2011)
Values joined by “and” are separate entries in the source; they are usually repeats but may differ in a detail not shown here. Identical values can stand only once. In all, about 400,000 compounds went through this assay and about 2,200 (0.55%) were called active. Inconclusive results (about 1%) are left out. Calls come from the whole dose curve; as a rule, active = well fitted inhibition curve with a large enough effect; inconclusive = small, poorly fitted or top-dose-only effect, or another doubt; inactive = no such curve, though single readings can be large or run the other way. This is a selection; strong and weak results do not stand in their true shares. Some compounds were tested as several samples or in several runs, with calls that do not always agree.

target: DNA polymerase kappa (Homo sapiens) (UniProt Q9UBT6); test: qHTS for Inhibitors of Polymerase Kappa; details: purified Pol kappa, fluorescent DNA synthesis assay, 10 min; series mostly up to 107 µM; activity, negative = inhibition: at the top concentration
UniProt Q9UBT6, sequence (Q9UBT6 whole entry, looked up): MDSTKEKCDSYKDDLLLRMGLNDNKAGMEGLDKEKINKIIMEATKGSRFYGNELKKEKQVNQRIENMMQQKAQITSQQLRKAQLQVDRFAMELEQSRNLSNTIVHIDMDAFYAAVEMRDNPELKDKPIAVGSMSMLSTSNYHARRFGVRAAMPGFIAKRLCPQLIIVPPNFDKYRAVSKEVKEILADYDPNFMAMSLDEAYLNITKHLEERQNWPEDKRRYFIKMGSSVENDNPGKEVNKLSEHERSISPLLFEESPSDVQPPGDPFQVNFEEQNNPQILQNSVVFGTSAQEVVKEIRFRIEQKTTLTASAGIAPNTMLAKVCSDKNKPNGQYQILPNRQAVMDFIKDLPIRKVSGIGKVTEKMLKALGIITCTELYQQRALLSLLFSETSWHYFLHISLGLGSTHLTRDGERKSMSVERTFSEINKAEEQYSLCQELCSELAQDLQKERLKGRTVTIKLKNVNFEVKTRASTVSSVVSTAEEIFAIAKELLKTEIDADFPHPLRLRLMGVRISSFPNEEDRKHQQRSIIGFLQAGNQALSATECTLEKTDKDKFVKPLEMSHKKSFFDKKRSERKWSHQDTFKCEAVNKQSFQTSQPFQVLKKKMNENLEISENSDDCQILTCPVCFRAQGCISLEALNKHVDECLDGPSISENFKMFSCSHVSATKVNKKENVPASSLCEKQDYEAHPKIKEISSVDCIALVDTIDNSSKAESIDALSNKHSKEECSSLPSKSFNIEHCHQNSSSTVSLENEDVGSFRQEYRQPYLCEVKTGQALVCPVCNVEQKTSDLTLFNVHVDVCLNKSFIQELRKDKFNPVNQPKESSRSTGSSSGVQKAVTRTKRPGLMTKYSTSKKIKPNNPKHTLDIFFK
Method in brief: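 Inhibition of 10 nM Pol kappa is measured by a fluorescent read-out at 0 and 10 min following addition of 50 nM substrate (final), with a 15-min room-temperature compound preincubation.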
% is set by controls: 0 for no effect and ±100 for the full control effect; potency is the fitted concentration of half-maximal effect.

Compound | activity, negative = inhibition | Potency
CN1CCCC1CCOC(C)(c1ccccc1)c1ccc(Cl)cc1 (stereo not drawn) | inactive: -5.89% | –
FC(F)(F)C1=Nc2cccc3cccc(c23)N1 | – | active: 6.31 µM
CCOc1[nH]c(/N=C/c2ccco2)c(C#N)c1C#N | inactive: -9.88% | –
CC(C)NCC(O)COc1ccc(COCCOC(C)C)cc1 (stereo not drawn) | – | inactive
CC(C)C[C@H](NC(=O)[C@@H](Cc1c[nH]c2ccccc12)NC(=O)[C@H](Cc1ccc(O)cc1)NC(=O)[C@H](CO)NC(=O)[C@H](Cc1c[nH]c2ccccc12)NC(=O)[C@H](Cc1cnc[nH]1)NC(=O)[C@@H]1CCC(=O)N1)C(=O)N[C@@H](CCCN=C(N)N)C(=O)N1CCC[C@H]1C(=O)NCC(N)=O | inactive: 14.1% [at 60.1 µM] | –
Nc1nc(=S)c2ncn([C@@H]3O[C@H](CO)[C@@H](O)[C@H]3O)c2[nH]1 | inactive: 7.55% | –
Cc1ccc(S(=O)(=O)N2CCC(=O)N(C(COCc3ccc(C(F)(F)F)cc3)Cc3ccccc3)CC2)cc1 (stereo not drawn) | inactive: -7.13% | –
Cc1cc(C(=O)COC(=O)c2cc(Cl)c(O)c(Cl)c2)c(C)n1C | – | active: 79.4 µM
O=C(O)c1ccc(-c2c3nc(c(-c4ccc(C(=O)O)cc4)c4ccc([n-]4)c(-c4ccc(C(=O)O)cc4)c4nc(c(-c5ccc(C(=O)O)cc5)c5ccc2[n-]5)C=C4)C=C3)cc1.[Mn+3] | inactive: 0.818% [at 60.1 µM] | –
O=c1cc(-c2ccc(O)cc2)oc2cc(O)cc(O)c12 | – | inactive
Cc1ccccc1N=C(N)Nc1ccccc1C | inactive: -17.1% [at 19.4 µM] and inactive: -5.32% [at 19.4 µM] | –
CCOC(=O)C1OC1C(=O)NC(CC(C)C)C(=O)NCCC(C)C (stereo not drawn) | inactive: 2.58% [at 19.4 µM] | –
CC(C)CCNC(=O)c1cnc2sc(N3CCCCCC3)nn2c1=O | inactive: 32.4% | –
CN(C)CCC[C@]1(c2ccc(F)cc2)OCc2cc(C#N)ccc21 | inactive: -2.99% | –
NC(=O)c1cc(S(=O)(=O)NCc2cccc(Br)c2)cs1 | – | inactive
COc1cc2c(C#N)c(N3CCCC3)nc(N)c2c(N)n1 | inactive: -23% | –
CC1(C)OC(=O)C(=Cc2ccc(-c3ccc(Cl)c(C(=O)O)c3)o2)C(=O)O1 | – | active: 39.8 µM
CC(C)C[C@H](NC(=O)CNC(=O)[C@H](CCC(N)=O)NC(=O)[C@H](CC(C)C)NC(=O)[C@H](CC(C)C)NC(=O)[C@H](CCCNC(=N)N)NC(=O)[C@H](CCC(N)=O)NC(=O)[C@H](CC(C)C)NC(=O)[C@H](CCCNC(=N)N)NC(=O)[C@H](C)NC(=O)CNC(=O)[C@H](CCC(=O)O)NC(=O)[C@H](CCCNC(=N)N)NC(=O)[C@H](CC(C)C)NC(=O)[C@H](CCCNC(=N)N)NC(=O)[C@H](CO)NC(=O)[C@H](CC(C)C)NC(=O)[C@H](CCC(=O)O)NC(=O)[C@H](CO)NC(=O)[C@@H](NC(=O)[C@H](Cc1ccccc1)NC(=O)[C@@H](NC(=O)CNC(=O)[C@H](CC(=O)O)NC(=O)[C@H](CO)NC(=O)[C@@H](N)Cc1cnc[nH]1)[C@@H](C)O)[C@@H](C)O)C(=O)N[C@H](C(N)=O)C(C)C | inactive: 19.8% [at 60.1 µM] | –
